Test results taken from publication PMC10184828.
No constants are given. Whether binding was seen depends on the method and setting. In cells and extracts the contact can be indirect. Some binding calls cover weakened binding; strength is not graded here. Sequences can lack the tags named with a protein.

By UniProt entry, the sequences of proteins in these tests, tags left out. Where a name states a change or a piece, a line headed by the entry shows the natural chain unless it says otherwise. Chains listed by the source or under a name are the forms on record and can include a tag or linker.
UniProt P48415: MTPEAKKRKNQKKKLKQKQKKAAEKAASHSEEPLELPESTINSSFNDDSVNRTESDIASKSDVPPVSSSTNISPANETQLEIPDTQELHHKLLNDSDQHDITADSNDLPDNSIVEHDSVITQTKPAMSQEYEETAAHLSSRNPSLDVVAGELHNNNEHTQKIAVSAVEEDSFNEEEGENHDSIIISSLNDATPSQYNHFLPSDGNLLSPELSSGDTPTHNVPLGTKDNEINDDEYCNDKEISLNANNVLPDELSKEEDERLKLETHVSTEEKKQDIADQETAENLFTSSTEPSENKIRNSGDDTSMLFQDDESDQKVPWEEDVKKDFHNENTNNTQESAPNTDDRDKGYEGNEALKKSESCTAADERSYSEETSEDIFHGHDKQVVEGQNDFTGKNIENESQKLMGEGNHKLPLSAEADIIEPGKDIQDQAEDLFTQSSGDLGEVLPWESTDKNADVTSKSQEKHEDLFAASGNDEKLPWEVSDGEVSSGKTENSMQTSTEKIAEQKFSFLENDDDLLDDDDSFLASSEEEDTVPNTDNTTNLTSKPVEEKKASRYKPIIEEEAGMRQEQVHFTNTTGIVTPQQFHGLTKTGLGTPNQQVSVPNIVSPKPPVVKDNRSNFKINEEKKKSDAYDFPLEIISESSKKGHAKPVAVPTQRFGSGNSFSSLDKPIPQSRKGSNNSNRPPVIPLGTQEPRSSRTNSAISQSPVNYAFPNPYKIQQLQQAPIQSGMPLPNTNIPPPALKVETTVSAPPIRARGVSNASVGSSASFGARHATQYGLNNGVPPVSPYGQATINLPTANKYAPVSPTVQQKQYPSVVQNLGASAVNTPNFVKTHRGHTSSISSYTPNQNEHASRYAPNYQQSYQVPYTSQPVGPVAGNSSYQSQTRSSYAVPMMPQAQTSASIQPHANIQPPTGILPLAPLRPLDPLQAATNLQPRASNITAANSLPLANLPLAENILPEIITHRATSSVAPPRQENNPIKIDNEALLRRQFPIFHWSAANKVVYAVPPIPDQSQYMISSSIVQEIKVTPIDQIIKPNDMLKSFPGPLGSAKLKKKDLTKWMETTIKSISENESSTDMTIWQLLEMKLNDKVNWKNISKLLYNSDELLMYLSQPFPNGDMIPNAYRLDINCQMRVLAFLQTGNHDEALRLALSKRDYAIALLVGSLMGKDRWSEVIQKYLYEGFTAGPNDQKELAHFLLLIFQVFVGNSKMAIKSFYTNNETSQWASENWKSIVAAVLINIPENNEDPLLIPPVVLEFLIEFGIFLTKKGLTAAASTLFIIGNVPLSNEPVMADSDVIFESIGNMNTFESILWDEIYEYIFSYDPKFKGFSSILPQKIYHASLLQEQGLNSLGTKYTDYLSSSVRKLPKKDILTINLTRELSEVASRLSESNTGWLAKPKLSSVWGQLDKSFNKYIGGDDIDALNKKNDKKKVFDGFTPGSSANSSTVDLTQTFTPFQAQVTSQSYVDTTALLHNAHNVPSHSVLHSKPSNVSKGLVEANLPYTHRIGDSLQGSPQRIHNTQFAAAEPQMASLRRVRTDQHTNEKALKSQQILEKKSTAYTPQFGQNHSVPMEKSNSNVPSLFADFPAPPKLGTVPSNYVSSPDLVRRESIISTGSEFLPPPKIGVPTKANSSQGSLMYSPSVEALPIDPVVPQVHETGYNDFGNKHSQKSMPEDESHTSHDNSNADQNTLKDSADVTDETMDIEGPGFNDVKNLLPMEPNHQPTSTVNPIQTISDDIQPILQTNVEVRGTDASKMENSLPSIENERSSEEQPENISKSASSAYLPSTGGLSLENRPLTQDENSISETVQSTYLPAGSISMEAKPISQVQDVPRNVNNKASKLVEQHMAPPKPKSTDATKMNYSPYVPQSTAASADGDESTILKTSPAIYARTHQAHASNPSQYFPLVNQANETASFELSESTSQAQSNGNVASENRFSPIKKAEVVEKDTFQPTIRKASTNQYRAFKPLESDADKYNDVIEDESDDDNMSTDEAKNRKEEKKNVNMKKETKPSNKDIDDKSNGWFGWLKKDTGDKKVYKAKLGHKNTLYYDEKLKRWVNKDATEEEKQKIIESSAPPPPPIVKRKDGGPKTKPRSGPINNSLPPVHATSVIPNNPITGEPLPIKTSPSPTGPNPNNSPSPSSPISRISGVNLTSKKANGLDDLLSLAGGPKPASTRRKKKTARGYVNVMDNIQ
Sec16^ΔS4B–HA (P48415, form named): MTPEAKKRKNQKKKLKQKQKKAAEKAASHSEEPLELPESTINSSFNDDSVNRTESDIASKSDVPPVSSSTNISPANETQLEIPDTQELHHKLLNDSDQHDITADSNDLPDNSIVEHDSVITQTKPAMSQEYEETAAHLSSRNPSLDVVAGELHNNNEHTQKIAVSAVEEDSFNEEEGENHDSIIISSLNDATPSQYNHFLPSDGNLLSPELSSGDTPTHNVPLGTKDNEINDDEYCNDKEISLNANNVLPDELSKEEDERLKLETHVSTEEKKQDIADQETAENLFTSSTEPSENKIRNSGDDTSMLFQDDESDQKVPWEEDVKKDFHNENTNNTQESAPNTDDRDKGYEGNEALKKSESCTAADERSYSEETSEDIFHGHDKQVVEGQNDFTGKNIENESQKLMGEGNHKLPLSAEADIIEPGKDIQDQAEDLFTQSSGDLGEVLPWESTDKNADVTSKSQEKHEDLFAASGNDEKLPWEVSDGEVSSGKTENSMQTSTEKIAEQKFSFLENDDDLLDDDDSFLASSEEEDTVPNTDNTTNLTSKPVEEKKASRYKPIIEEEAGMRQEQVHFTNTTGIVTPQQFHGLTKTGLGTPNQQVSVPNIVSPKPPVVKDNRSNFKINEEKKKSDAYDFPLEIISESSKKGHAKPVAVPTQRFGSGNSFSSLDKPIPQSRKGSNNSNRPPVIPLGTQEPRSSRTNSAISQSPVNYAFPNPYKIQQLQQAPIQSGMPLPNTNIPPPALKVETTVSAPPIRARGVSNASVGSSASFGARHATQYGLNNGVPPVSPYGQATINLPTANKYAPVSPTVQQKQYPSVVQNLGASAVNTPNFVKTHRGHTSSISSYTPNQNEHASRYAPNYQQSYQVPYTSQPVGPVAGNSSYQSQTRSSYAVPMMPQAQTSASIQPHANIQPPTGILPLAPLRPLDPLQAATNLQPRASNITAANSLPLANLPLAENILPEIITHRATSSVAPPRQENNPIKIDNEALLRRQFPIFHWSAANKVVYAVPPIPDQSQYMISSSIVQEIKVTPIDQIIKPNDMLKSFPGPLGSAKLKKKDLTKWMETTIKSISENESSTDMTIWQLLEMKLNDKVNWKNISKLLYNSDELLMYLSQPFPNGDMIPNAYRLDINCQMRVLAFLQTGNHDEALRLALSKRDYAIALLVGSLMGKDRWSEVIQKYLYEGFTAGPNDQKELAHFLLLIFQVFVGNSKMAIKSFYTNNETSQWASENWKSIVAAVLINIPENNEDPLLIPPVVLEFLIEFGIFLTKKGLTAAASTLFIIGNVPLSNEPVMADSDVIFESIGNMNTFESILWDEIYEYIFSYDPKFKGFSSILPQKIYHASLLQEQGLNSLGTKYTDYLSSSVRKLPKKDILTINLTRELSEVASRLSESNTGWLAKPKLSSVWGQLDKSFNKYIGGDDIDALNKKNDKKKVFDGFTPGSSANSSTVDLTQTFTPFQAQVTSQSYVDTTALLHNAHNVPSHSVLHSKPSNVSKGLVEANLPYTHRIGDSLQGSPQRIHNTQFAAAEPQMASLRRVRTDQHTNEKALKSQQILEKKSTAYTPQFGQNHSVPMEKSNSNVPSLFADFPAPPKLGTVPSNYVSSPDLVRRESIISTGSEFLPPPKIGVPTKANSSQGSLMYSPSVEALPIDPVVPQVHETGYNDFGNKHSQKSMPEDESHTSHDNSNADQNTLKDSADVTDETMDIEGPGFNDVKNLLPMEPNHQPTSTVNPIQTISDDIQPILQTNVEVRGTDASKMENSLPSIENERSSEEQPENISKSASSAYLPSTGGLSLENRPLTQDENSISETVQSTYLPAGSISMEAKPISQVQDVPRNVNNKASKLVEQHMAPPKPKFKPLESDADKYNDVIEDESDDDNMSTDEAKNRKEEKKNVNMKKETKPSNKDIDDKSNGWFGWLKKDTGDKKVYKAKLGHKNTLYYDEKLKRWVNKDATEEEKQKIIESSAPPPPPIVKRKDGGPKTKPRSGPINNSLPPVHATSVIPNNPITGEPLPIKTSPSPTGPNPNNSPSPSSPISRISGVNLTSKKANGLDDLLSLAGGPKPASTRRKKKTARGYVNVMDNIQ

What was measured:
[1] = biological target: Sec16^ΔS4B–HA (S. cerevisiae) (UniProt P48415); experiment: co-IP; octylglucoside-solubilized extracts of sed4Δ sec16Δ cells; immunoprecipitation with anti-HA antibody, blot with anti-HA and anti-V5; 25 mM HEPES pH 8.0, 50 mM NaCl, 1 mM EDTA, 5% glycerol, 4°C
Sec16–HA (S. cerevisiae) = Sec16–HA (S. cerevisiae) (UniProt P48415); experiment: as above
[2] = biological target: T1, Sed4^Δ544L–Flag (S. cerevisiae) (UniProt P25365); experiment: co-IP; octylglucoside-solubilized extracts of sed4Δ cells (or sed4Δ sec16Δ cells expressing Sec16 or Sec16^ΔS4B); immunoprecipitation with anti-Flag (anti-DDDDK) antibody, blot with anti-Flag and anti-V5; 25 mM HEPES pH 8.0, 150 mM NaCl, 1 mM EDTA, 5% glycerol, 4°C
T1 sequence: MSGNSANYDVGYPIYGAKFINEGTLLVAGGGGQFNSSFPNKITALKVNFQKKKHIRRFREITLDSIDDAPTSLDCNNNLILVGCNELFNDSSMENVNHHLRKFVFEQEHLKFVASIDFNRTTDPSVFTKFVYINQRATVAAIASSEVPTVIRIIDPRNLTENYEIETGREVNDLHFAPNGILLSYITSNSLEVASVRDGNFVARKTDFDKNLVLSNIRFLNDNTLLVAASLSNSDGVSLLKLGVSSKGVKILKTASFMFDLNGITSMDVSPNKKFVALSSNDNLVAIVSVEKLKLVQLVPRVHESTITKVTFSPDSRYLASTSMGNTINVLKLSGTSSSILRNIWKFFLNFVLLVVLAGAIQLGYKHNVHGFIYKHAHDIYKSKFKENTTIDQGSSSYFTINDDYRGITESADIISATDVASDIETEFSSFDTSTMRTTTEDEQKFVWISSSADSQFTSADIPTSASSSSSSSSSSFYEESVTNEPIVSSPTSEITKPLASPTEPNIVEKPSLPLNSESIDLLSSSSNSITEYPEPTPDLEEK

[3] = biological target: T2, Sed4^Δ942L–Flag (S. cerevisiae) (UniProt P25365); experiment: as above
T2 sequence: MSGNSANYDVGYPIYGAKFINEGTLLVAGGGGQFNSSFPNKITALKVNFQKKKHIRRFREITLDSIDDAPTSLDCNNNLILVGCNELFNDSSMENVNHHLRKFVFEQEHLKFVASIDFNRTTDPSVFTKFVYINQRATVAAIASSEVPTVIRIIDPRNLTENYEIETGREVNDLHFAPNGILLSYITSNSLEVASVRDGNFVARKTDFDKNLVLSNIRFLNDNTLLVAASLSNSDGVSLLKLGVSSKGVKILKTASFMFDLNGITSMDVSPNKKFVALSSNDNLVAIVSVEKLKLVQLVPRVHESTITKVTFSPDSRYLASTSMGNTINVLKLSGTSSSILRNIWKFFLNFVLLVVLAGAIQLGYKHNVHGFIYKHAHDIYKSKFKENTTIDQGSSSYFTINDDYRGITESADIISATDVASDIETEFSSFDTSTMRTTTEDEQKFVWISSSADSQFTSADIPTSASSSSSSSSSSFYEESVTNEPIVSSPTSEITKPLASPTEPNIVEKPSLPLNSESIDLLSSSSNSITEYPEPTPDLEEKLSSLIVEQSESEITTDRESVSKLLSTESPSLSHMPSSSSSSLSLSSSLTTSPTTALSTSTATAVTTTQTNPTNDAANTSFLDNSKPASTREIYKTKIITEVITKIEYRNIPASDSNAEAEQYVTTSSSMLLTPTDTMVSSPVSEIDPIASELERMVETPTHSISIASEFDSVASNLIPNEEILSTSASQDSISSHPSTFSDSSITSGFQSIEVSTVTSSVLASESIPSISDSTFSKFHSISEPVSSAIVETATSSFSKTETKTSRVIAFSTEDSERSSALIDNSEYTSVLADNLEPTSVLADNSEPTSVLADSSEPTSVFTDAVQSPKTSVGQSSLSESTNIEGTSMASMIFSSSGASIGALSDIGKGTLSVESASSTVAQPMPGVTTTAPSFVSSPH

Sed4–V5 (S. cerevisiae) = biological target: T3, Sed4–V5 (S. cerevisiae) (UniProt P25365); experiment: as above
T3 sequence: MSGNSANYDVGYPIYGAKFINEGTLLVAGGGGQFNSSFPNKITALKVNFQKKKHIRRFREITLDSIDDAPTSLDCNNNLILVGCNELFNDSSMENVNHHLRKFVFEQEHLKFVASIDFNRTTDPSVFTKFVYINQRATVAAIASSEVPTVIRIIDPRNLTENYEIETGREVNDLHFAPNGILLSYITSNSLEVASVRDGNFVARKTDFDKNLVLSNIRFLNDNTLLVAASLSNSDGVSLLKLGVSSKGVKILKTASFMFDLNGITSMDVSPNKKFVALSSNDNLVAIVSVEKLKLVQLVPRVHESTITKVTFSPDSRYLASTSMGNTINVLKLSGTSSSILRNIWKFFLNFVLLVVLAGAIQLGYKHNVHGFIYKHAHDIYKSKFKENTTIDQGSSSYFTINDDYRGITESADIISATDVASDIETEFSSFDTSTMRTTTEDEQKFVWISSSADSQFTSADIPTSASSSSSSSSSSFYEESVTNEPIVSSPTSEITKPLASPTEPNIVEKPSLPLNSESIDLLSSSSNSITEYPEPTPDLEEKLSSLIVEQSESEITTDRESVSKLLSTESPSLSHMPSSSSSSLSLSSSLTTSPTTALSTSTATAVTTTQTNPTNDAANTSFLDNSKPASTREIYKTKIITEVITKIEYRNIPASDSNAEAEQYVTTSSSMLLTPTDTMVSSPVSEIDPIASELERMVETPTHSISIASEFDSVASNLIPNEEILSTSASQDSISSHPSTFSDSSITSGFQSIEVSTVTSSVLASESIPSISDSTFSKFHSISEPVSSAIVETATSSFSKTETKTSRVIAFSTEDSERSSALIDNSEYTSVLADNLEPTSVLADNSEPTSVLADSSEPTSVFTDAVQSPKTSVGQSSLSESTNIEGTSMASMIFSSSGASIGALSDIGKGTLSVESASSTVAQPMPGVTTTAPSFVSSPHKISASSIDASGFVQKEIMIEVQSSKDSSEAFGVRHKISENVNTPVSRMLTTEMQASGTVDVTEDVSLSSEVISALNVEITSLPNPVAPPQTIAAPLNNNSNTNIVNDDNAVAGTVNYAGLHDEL

- binding [1]: no binding
- binding (Sec16–HA (S. cerevisiae)): binds
- binding [2]: binds
- binding [3]: binds
- binding (Sed4–V5 (S. cerevisiae)): binds
B1: Sed4–V5 (protein, UniProt P25365 1-1065)
chain: T3 sequence
